# The supplement of paper PMC10126150
# Sequences with one replicate were seen in a single cluster, so their values are uncertain.
# System: ATP
# Assay: switch fluorescence ratio, 500 uM ATP over buffer (Cy3 cluster intensity, sum of 5 cycles each) (fold (ratio)); higher = stronger signal-on switching upon ATP binding; sequences stand for … in TCGTCGGCAGCGTCAGATGTGTATAAGAGACAGTTTTTTTTTTTTTTTTTTTTTTTTT…TC
# Settings: aptamer strand: ATP DNA aptamer (quencher-CACCTGGGGGAGTATTGCGGAGGAAGG + anchor), 100 nM annealed; ATP concentration: 500 uM; one replicate
# Procedure, shortened: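 Between each of five buffer/ATP cycles, the flow-cell was stripped with NaOH and re-annealed. Each cycle imaged Cy3-labelled switching-strand clusters, annealed to 100 nM quencher-labelled ATP aptamer on a modified Illumina MiSeq flow-cell, first in selection buffer and then after 15 min with 500 uM ATP at 22 °C. The fluorescence ratio is summed target-cycle over summed buffer-cycle Cy3 intensity per cluster, averaged per switch-domain sequence, with clusters outside 100-1000 RFU excluded.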
# 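Note: ATP exposure 15 min at 22 °C before imaging.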
row,Sequence,switch fluorescence ratio
1,GTTGTGGTGC,1.05
2,GTTGTGTG,0.948
3,GTTGTTCGTT,1.04
4,GTTGTTCTAC,1.03
5,GTTGTTGCGG,1.07
6,GTTTAACCCT,1.05
7,GTTTAAGTCA,1.01
8,GTTTAATAGT,0.993
9,GTTTACCTT,1.05
10,GTTTACGATC,0.966
11,GTTTACTGCA,1.01
12,GTTTATGATT,1.02
13,GTTTATTCG,1.04
14,GTTTCAAATG,0.97
15,GTTTCACCGT,0.963
16,GTTTCAGACG,1.11
17,GTTTCCGAAA,1.03
18,GTTTCCGCTC,1.93
19,GTTTCCGGGG,1.09
20,GTTTCGACAT,1.03
21,GTTTCGTTGG,0.98
22,GTTTGACAGC,1.01
23,GTTTGCCAAA,0.998
24,GTTTGGAAAG,0.994
25,GTTTGGAGTA,0.996

row,Sequence,switch fluorescence ratio
1,GTTTGGTCTG,0.993
2,GTTTGTACTT,0.998
3,GTTTGTCGAC,0.979
4,GTTTTAACCT,1.24
5,GTTTTAATCG,1
6,GTTTTAGCAA,1.15
7,GTTTTCATAA,1.03
8,TAAAAACTTT,1.01
9,TAAAAATTGA,0.985
10,TAAAACTTGC,1.06
11,TAAAAGTACG,1.03
12,TAAAAGTGCA,0.981
13,TAAAATAGGT,0.997
14,TAAAATGATC,0.961
15,TAAAATGTGT,1.01
16,TAAAATTC,1
17,TAAAATTGCG,1.05
18,TAAACAAACT,1.4
19,TAAACAATGG,1.17
20,TAAACAGCC,1.11
21,TAAACCGTAT,1.06
22,TAAACGCCAG,1.03
23,TAAACGGTAG,0.995
24,TAAACGTGTG,0.984
25,TAAACTCGGT,0.981

row,Sequence,switch fluorescence ratio
1,TAAACTGATG,0.993
2,TAAACTTCCT,1.39
3,TAAAGACCGT,1.21
4,TAAAGCTTCT,1.57
5,TAAAGGCGGA,0.978
6,TAAAGGTTT,0.966
7,TAAAGTATGA,0.996
8,TAAAGTCGCC,0.96
9,TAAAGTCGCT,0.966
10,TAAAGTTCAA,1.02
11,TAAATAAAAG,0.987
12,TAAATAGGGG,1
13,TAAATATGCC,1.06
14,TAAATCATAA,0.969
15,TAAATCGAGT,1.06
16,TAAATGGGTC,0.974
17,TAAATTATAC,1.1
18,TAAATTCTTA,0.967
19,TAAATTTAGT,0.993
20,TAACAAAAGA,0.965
21,TAACAACCTA,1.06
22,TAACAAGTTG,0.973
23,TAACAGGTCG,0.979
24,TAACCAGGCG,1.24
25,TAACCCATGG,1.01

row,Sequence,switch fluorescence ratio
1,TAACCGAAGA,1.05
2,TAACCGGCAG,1.07
3,TAACCTCGGG,0.983
4,TAACCTTTTG,1.06
5,TAACGCAAA,1.3
6,TAACGCTCGC,1.13
7,TAACGGCCTA,1.01
8,TAACGGCGAA,1.03
9,TAACGTTTAG,0.987
10,TAACTAAAAA,0.999
11,TAACTAAAAT,0.998
12,TAACTATAAT,1.02
13,TAACTCATTT,0.989
14,TAACTCTTAC,1.2
15,TAACTGACCA,1.1
16,TAACTGCGAT,1.06
17,TAACTTTACG,1.13
18,TAACTTTGGA,0.96
19,TAAGAAAAGC,0.978
20,TAAGAAACGT,1.01
21,TAAGAAGTGA,1.01
22,TAAGACAATA,1.04
23,TAAGAGATGG,0.988
24,TAAGATAAGG,0.991
25,TAAGATCGCG,0.993

row,Sequence,switch fluorescence ratio
1,TAAGATTACT,0.999
2,TAAGATTTA,1.01
3,TAAGCAGGC,1.04
4,TAAGCTTTCA,1.01
5,TAAGGCCCGT,0.97
6,TAAGGCGATG,0.989
7,TAAGGGATTA,1.01
8,TAAGGGATTG,0.964
9,TAAGGGTGTT,1.04
10,TAAGGGTTCC,1.01
11,TAAGGTATAG,1.01
12,TAAGGTCGGA,1.04
13,TAAGGTGAAC,1.05
14,TAAGGTGCGG,1.01
15,TAAGGTGGGC,1.01
16,TAAGGTTCC,0.991
17,TAAGTAAGAC,1.7
18,TAAGTCAAAA,0.952
19,TAAGTGTTG,0.98
20,TAAGTTGCAG,0.995
21,TAATAACAGC,0.983
22,TAATAACGAT,1
23,TAATAACTTC,1.05
24,TAATAAGTCT,1.05
25,TAATAATAGC,0.986

row,Sequence,switch fluorescence ratio
1,TAATACTAAG,1.03
2,TAATAGTGGA,0.985
3,TAATATTCAT,0.968
4,TAATCAATTG,0.983
5,TAATCACATT,1
6,TAATCATACC,0.992
7,TAATCATGGA,0.948
8,TAATCCCGTT,0.958
9,TAATCGCCTT,1.01
10,TAATCGGTCC,0.962
11,TAATCGTAGA,1.05
12,TAATCTAAAC,0.998
13,TAATCTACCG,1.09
14,TAATGAATAT,1
15,TAATGACGTG,0.958
16,TAATGAGGAC,0.937
17,TAATGAGTAG,0.979
18,TAATGATATT,1.02
19,TAATGGACGG,0.998
20,TAATGGCCCT,0.952
21,TAATGGCCGG,1.01
22,TAATGGCTAG,0.99
23,TAATGTGGCA,1.02
24,TAATGTTAG,0.989
25,TAATGTTGCT,0.998

row,Sequence,switch fluorescence ratio
1,TAATTAACCA,0.961
2,TAATTAGAAT,1
3,TAATTATTGC,1
4,TAATTCATCC,1.03
5,TAATTCCTCG,1.13
6,TAATTCGAGA,0.978
7,TAATTGCTTA,1.02
8,TAATTGTTGA,1.01
9,TAATTTAGCC,0.994
10,TAATTTCGTT,1.02
11,TAATTTGGT,0.97
12,TAATTTTGTC,1.05
13,TACAAAATGA,1.04
14,TACAAACATT,1.13
15,TACAAATTTG,0.977
16,TACAAGTGGA,1.03
17,TACACACATC,1.21
18,TACACACGGT,1.41
19,TACACACTGA,1.39
20,TACACGGGGA,1.01
21,TACACGGTTG,0.995
22,TACACGTGTA,0.996
23,TACACTAATA,1.06
24,TACAGAGGCT,1.01
25,TACAGAGGTA,1.01

row,Sequence,switch fluorescence ratio
1,TACAGCGCGA,1.14
2,TACAGTTAC,1.18
3,TACATAAGGC,1.01
4,TACATAGTCG,1.03
5,TACATCAGCA,0.994
6,TACATCTGAG,1.04
7,TACATCTGAT,0.977
8,TACATCTTTT,0.993
9,TACATGACCG,1.1
10,TACATGGGGT,1.01
11,TACATGGTAC,1
12,TACATTAGCC,1.02
13,TACATTATGC,1.07
14,TACATTGGTT,0.962
15,TACATTTACA,1.19
16,TACCAAAGCG,1.07
17,TACCAACGGG,1.09
18,TACCAATCCA,1.39
19,TACCACTAAT,1.05
20,TACCACTCTG,1.02
21,TACCAGACGC,1.24
22,TACCAGTGGA,0.982
23,TACCATGACA,1.04
24,TACCCATTTA,1
25,TACCCGAAGG,0.939
